Measurements: the supplement of paper PMC11417369
± gives the standard deviation of the averaged measurements. The list shows a part of the results.

System: PfAP2-LT AP2 domain (GST-tagged)
Assay: gcPBM binding intensity (ln(normalized median fluorescence intensity)); higher = stronger DNA binding
Procedure, shortened: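 An Agilent 4 × 180k array carrying primer-extended double-stranded 36-bp intergenic genomic probes and negative controls received GST-tagged P. falciparum DNA-binding domains expressed in E. coli, about 25 μg on average, for 1 h. The binding buffer contained 1× PBS, 1% milk, 0.2 mg/ml BSA, 0.5% salmon testes DNA and 0.03% Triton X-100. Binding intensity is the top Masliner-normalised natural-log median intensity across replicate spots of either probe orientation, read after Alexa488 anti-GST antibody staining and a 488 nm scan.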

Sequence | gcPBM binding intensity (ln)
TCTTTATCTTCTTATACACACATTTATTAAAAAAAA [CACACA_site445] | 8.55 ± 0.4
ATTTTTTAAAAAGTAACACACACTCTTATATATAAT [CACACA_site9206] | 8.91 ± 0.45
TATATACTCAAACACACACACACATACACAGACATA [CACACA_site5025] | 9.94 ± 0.31
ATTTTTTTTTTTTTTTTTTTTGCACCATAAAATAAT [CACACA_negctrl_site1324] | 8.57 ± 0.45
TATATATATATGTGTACACATTTGTCAGATTATATA [CACACA_site4813] | 9.18 ± 0.36
ATTTTGACATTATATAGTACATATAATTTACATTTA [XGTACX_site3024] | 8.73 ± 0.4
AATATAATTTTTTATTGTACAAAAAAATTATTTAAT [XGTACX_site3248] | 8.27 ± 0.42
TATTATTAATATGTATGGTTGTAATCTGTGTCTCCT [TGCATGCA_negctrl_site190] | 8.85 ± 0.61
AAGAACAAATATGAGGTGCAACACAATATATTATTA [GTGCAC_site9965] | 9.05 ± 0.47
CATTTTGTAAGATATGCACACATGGATCATATTTTA [CACACA_site423] | 8.95 ± 0.34
TTTTTTTTTATCAAATGTACATATATATAATAATAA [XGTACX_site3941] | 8.29 ± 0.35
AATAAGTATACACATACACACACACCCAAAAAAAAA [CACACA_site8034] | 10 ± 0.39
TATATAAGAATATATACACACATATATGTATATATA [CACACA_site2178] | 8.91 ± 0.35
TTTTACAATGAAATATGTACTTAAATGTCCAAATTC [XGTACX_site781] | 8.51 ± 0.4
AAAAAGAAAAATTGCACACACTTATAAAAATATACG [CACACA_site6074] | 9.07 ± 0.46
GTTAACAAATAATGCACACAAATGGATAAAATTATA [CACACA_site3725] | 9.21 ± 0.38
TTAACCATTAATTCTCTACACACTTTTATTTTATTT [CACACA_site8522] | 8.84 ± 0.67
ATGGGTATTAAGTGTACACATATAGTGTATTTTGTT [CACACA_site4452] | 9.04 ± 0.3
GTGTAAATATAATTAGTTTCACAAAACAAATATTTA [CACACA_negctrl_site717] | 8.61 ± 0.42
AGGCACAAAATTAAATGTACATATATATATATATAT [XGTACX_site3323] | 9.835 ± 0.078
ATATATATATGTTTGTGTACTTATGATATCATATAA [XGTACX_site3276] | 8.97 ± 0.37
ATTATATTCTTTACTACCAATTAGTAGAAAATAAAA [CACACA_negctrl_site1096] | 8.25 ± 0.44

Sequence | gcPBM binding intensity (ln)
TTAAAATAGCTAGTTTGTACATAAAATATATTACTT [XGTACX_site202] | 8.56 ± 0.43
AATATATATATATATATTTTTGTTAGAATATGGAAT [GTGCAC_negctrl_site434] | 8.65 ± 0.32
TTTTAAAAAATATAATAATATAAATATGTTTTATAC [CACACA_negctrl_site643] | 8.2 ± 0.42
TAAATAAATAAAAATAGTACATAATTATTATTATTA [XGTACX_site4981] | 8.48 ± 0.56
ATATATATGTATGTATGTACACACAAAAAATGGAAT [XGTACX_site7879] | 9.65 ± 0.38
AAAAAAAAAAAAAAAACACACATTTTAAGAAAAAAA [CACACA_site2926] | 8.45 ± 0.57
TACAAAATAAATGGAACATGCAAAAAAATTGATTAA [TGCATGCA_site790] | 8.82 ± 0.45
ATATGCTATTATATATGTACACACCAATTTATTTAT [XGTACX_site8364] | 9.16 ± 0.38
TATTTAATTATTTGTAGTACGATTAATATTTAATGA [XGTACX_site3553] | 8.45 ± 0.34
ATAGAATATTAATAATTAAAAATAAAATAAAATAAA [CACACA_negctrl_site1810] | 8.54 ± 0.44
CTTAATAAGAATAAATGTACAAGGGATAAAAAATTT [XGTACX_site3213] | 8.71 ± 0.42
CAAAAGTAAGCACGCACACACAACATGAAATAAACT [CACACA_site6223] | 9.91 ± 0.49
TTAATTAATTTTTCAGTGCAAATAAAAAATATTTAA | 8.12 ± 0.46
TATACGCAGAAACACACACACATACACCCACATACA [CACACA_site1723] | 10 ± 0.26
TATCTTATAAACTCTGCACACATAATATATTAAATG [CACACA_site8587] | 9.05 ± 0.36
AACGTTCATAATTATTGTACCCTCATTTTATTTTTT [XGTACX_site503] | 9.04 ± 0.52
AAAAATTTTAATTAGGAACACACATATATATATATA [CACACA_site9016] | 9.48 ± 0.42
ATAACTTTTTAAAAGACACACATAAGAAAAACAAAA [CACACA_site723] | 8.8 ± 0.52
ATAAAACGAAGATGTTGTACGTACAAATAAATGAAT [XGTACX_site2472] | 9.48 ± 0.51
TATATTAGAAAGGATACACACATATATATATATCTA [CACACA_site570] | 8.98 ± 0.34
ATTCATTCATATGTTACACACACACCGACACATAAA [CACACA_site5749] | 9.62 ± 0.16
TTTTGAAGTAACAAATAAATAAATAAATATATAAAA [GTGCAC_negctrl_site517] | 8.47 ± 0.42

Sequence | gcPBM binding intensity (ln)
TATTAAACTGGACACACACACACACCCATATATAAA [CACACA_site4579] | 10.15 ± 0.021
GACTTTTCAATTTTTCGTACGTATAAATTGTATACA [XGTACX_site1488] | 8.91 ± 0.33
TTTTGTTACTTTTATGTGCACTTATAAAACGAACTA [GTGCAC_site9551] | 8.73 ± 0.43
TTTTTATTGTTGTACTTATATTATTTTATTATTAAA [GTGCAC_negctrl_site200] | 8.65 ± 0.47
CTAATATATATCAATTGTACATATTGAATAAGAACA [XGTACX_site4541] | 8.79 ± 0.35
AAAAAATGGATGATCACACACTTCATAAAAATTGCA [CACACA_site5256] | 8.88 ± 0.5
AAAAAAAAAAAAAAATGTACCCATATATAAATATAT [XGTACX_site4061] | 8.52 ± 0.48
TTTAATTATAAAACGTGTACATAATTATAATTACAT [XGTACX_site2206] | 8.71 ± 0.44
ATCATTTGCTCACGCACACACACATAAAAAGAAAAA [CACACA_site4349] | 9.4 ± 0.28
AAAAATAGTATAAGTAGTACAACTGAAAAGTTATGT [XGTACX_site7488] | 9.16 ± 0.22
ATTATGTACAAAATGGTGCAATATTATACATATATA [GTGCAC_site9468] | 8.91 ± 0.42
AAAATAATCACATATTGTACAAAAAAATTTATTAAA [XGTACX_site3239] | 8.59 ± 0.66
ACATAATTTGATAATACACACAAATAATCTAAAATT [CACACA_site129] | 8.92 ± 0.48
TATATTAATATGAAAAGTACACATTCTATATATATA [XGTACX_site929] | 8.59 ± 0.43
AACATAATAAAAAAACGTACATAATTTTATATACAT [XGTACX_site6602] | 8.87 ± 0.41
TTTATTATCTTATTCACACACATATATAAATATGTA [CACACA_site7369] | 9.06 ± 0.42
AAAAAAAAAACATACACACACACAAATATTTATATA [CACACA_site437] | 9.91 ± 0.18
ATATATCCAATATATATATATATATATATATATATA [CACACA_negctrl_site160] | 9.54 ± 0.057
ACATTCATAAAAAAAAGTACATTTTTTATAAAAGAA [XGTACX_site6197] | 8.53 ± 0.49
TTGTTAAATATTTATAAAATGAATTTAAAATGTACT [CACACA_negctrl_site665] | 8.27 ± 0.37
AAGAAAAAATGATGAATAGAGATCAAATCTATATAT [TGCATGCA_negctrl_site29] | 8.69 ± 0.49
TAGTTTTTATATAGCACACATATTGTGATTATGTAT [CACACA_site1196] | 8.96 ± 0.35

Sequence | gcPBM binding intensity (ln)
TTTATATATAAATATATATATATATATATATATATA [TGCATGCA_negctrl_site121] | 9.265 ± 0.05
ATAATATAGAAACACACACACATATATATATACATT [CACACA_site555] | 9.77 ± 0.3
AAATTATGTGCCAATACACACACACCGATATATATA [CACACA_site8050] | 9.92 ± 0.21
AATTCATTTTACCCATGTACACAATTATATTTTATA [XGTACX_site4127] | 8.85 ± 0.53
TTCTTAGATTGTACAGTACACACCTTTAGAATGTTA [CACACA_site212] | 8.87 ± 0.45
TACTACCACGGACATGCATGCACATTATTACTCTAA [TGCATGCA_site313] | 9.12 ± 0.43
TGAATAAATCAAAGCACACATACACCCACATATATA [CACACA_site286] | 9.47 ± 0.24
TGCTACATTTTATGTACACACATATACAGATATATA [CACACA_site4646] | 8.9 ± 0.4
ACATAATAAAAATAAATTCATAAGTAAATAAATAAA [TGCATGCA_negctrl_site186] | 8.68 ± 0.59
AATAATATTTAATACACACACCAGTTCTGCAAATTT [CACACA_site7712] | 9.25 ± 0.35
GAAAAAAGAAATTAAACATGCATCTGCAAATTTAAA [TGCATGCA_site974] | 8.6 ± 0.49
AATAGTAAAAGATATACACACACCAAAAAATATAAT [CACACA_site5293] | 9.47 ± 0.25
TTACACATGTTTAACTGTACACATAATAGCAATATT [XGTACX_site8545] | 8.88 ± 0.3
ACAATTATTTTGTTCTTTAATGGTAGGTTCTATGTC [CACACA_negctrl_site1419] | 8.76 ± 0.52
CATAAATTACTTTTTACACACTAAAATAAAATACAA [CACACA_site1135] | 8.67 ± 0.47
CTAAAAAATAGTAAAAGTACATAAATAATTTTGCTT [XGTACX_site8919] | 8.63 ± 0.53
TTATATATTTTTATGTGTACTTATATATATATATAT [XGTACX_site6211] | 8.98 ± 0.38
CACAAAGACACAAACACACACACACCCACATACATA [CACACA_site452] | 9.86 ± 0.24
ATTTCCCTATATAGAGCATGCACTATATTCAAATGA [TGCATGCA_site531] | 8.73 ± 0.26
TACTTATTTAAAATAGTGCATGAATAGAAGATATAT [GTGCAC_site9756] | 8.62 ± 0.39
AACAAAAACACTTTTACACACATAAGTAAAATATAT [CACACA_site1994] | 9.15 ± 0.4
AAAAAAAAATATAACAGTACATAAACATATGAATAT [XGTACX_site7093] | 8.96 ± 0.43
